The values below come from PubChem BioAssay AID1963576 (National Center for Advancing Translational Sciences (NCATS), 2024).

Screen size: about 46,000 compounds; about 60 (0.1%) were called active. Inconclusive results (about 3%) are left out. Calls follow the shape of the dose curve; as a rule, active = well fitted inhibition curve with a large enough effect; inconclusive = small, poorly fitted or top-dose-only effect; inactive = no such curve, though single readings can be large or run the other way. Some of the results follow.

A short description of this test: Primary qHTS assay for Inhibitors of ovarian cancer metastasis using an organotypic tumor microenvironment (TME) model. Also: nearly all actives have a fitted effect of over 65% in size.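 As to activity change, negative = inhibition: plate controls were DMSO wells for no effect and tomatine positive control wells for full effect.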 The note with it: SKOV3ip1-GFP adhesion/invasion on 3D omental model, fluorescence; series mostly up to 45.8 µM; activity change, negative = inhibition: at the top concentration. In outline:
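Primary human omental fibroblast/mesothelial 3D culture pre-formed 48 h. SKOV3ip1-GFP cells added with compounds (0.36-46 umol/L), incubated 2 h RT/16 h 37 C, fixed; GFP cells quantified at 488/509 nm.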
For orientation: Quantitative high-throughput screening tests each substance at several concentrations.
Consider `Cc1ccc2oc(C(=O)Nc3sc4c(c3C(=O)NCC3CCCO3)CCC4)cc(=O)c2c1` (configuration not stated), for which the “activity change, negative = inhibition” value is inactive: 2.28%.
The same measure, in the same setting: next, `CCN(CC)c1ccc(NC(=O)CN2CCN(CC(=O)Nc3ccc(Cl)cc3)CC2)cc1`: inactive: 1.63%; `O=C(NCCC1=CCCCC1)c1ccc2c(c1)sc1nc(-c3ccc(F)cc3)cn12`: inactive: 4.34%; `O=C(NCCc1ccccc1)c1ccc2c(c1)N(Cc1ccc(F)cc1)C(=O)CS2`: inactive: -5.45%.
With `CC(C)Cn1cc(NC(=O)NCc2cccc(Cl)c2)c2ccccc2c1=O`, the call was inactive.
Consider `COc1ccc(NC(=O)c2cccc(N3CCCS3(=O)=O)c2)c(OC)c1`, for which the compound was called inactive.
As for `COC(=O)c1ccccc1NC(=O)c1nc(-c2ccc(C)cc2)n2c1CCCCC2`, the “activity change, negative = inhibition” value is inactive: 4.22%.
As for `CC(NC(=O)Cn1c(=O)oc2cc(S(=O)(=O)N3CCCCCC3)ccc21)c1ccccc1` (configuration not stated), the “activity change, negative = inhibition” value is inactive: -6.14%.
On the same count and under the same terms, next, `CC(NC(=O)c1cc2c(=O)n3ccccc3nc2n(C(C)C)c1=N)c1ccccc1` (configuration not stated): inactive: -15.9%.
For `COc1cc(OC)c(C2CC(=O)Nc3ccc4ccccc4c32)cc1OC` (configuration not stated), the compound was classed as inactive.
For the compound `Nc1nc(N)c(N=O)c(OCC2CCCCC2)n1`, the “activity change, negative = inhibition” value is inactive: 1.67%.
As to `COCCNC(=O)Cn1nc(-c2ccccc2)c2ccccc2c1=O`, the “activity change, negative = inhibition” value was inactive: 4.63%.
With `CC(=O)N1c2ccccc2C(=O)C1N1CCN(c2cccc(Cl)c2)CC1` (configuration not stated), the “activity change, negative = inhibition” value was inactive: -2.38%.
Still for that read-out and setting: next, `COc1cc(NC(=O)CN2C(=O)CCc3cc(Br)ccc32)cc(OC)c1OC`: inactive: -10.5%.
Regarding `Cc1ccc(CCNS(=O)(=O)c2ccc3c(c2)C(C(C)C)C(=O)N3)cc1` (configuration not stated), the compound was called inactive.
On to `Cc1ccc(C2=NN(CC(=O)NCCc3ccccc3)C(=O)CC2)cc1`, for which the “activity change, negative = inhibition” value is inactive: -3.19%.
`Cc1cccc(OC(=O)CSc2nnc(-c3ccc4c(c3)OCO4)o2)c1C`: the “activity change, negative = inhibition” value is inactive: -15.2%.
With `Cc1cn(C)c(CC(=O)NCc2ccc(Cl)cc2)c1C(=O)O`, the “activity change, negative = inhibition” value was inactive: 7.31%.
Same read-out and setting: next, `COc1cccc(Cn2c(=O)n(CC3CCC(C(=O)NC(C)C)CC3)c(=O)c3sccc32)c1` (configuration not stated): inactive: 5.03%.
As for `COc1ccccc1NC(=O)CC(C)n1nc(C)cc1C` (configuration not stated), the “activity change, negative = inhibition” value was inactive: 7.1%.
The same measure, in the same setting: next, `CCOc1ccc(C2c3c(-c4cc(C)ccc4O)n[nH]c3C(=O)N2Cc2cccnc2)cc1OCC` (configuration not stated): inactive: 0.637%; `Cc1ccc(N(CC(=O)N2CCN(c3ccc(F)cc3)CC2)S(=O)(=O)c2c(C)noc2C)cc1`: inactive: 0.659%.
Regarding `CC(C)(C)C(=O)NCCc1nc2ccccc2n1CCCCOc1ccccc1`, the “activity change, negative = inhibition” value is inactive: 9.28%.
The same measure, in the same setting: in the case of `Cc1ccc2c(=O)c(C(=O)c3cccc(Cl)c3)cn(CC(=O)NC3CCCCC3)c2n1` it was inactive: 1.59%; in that of `CCOC(=O)c1ccc(NC(=O)CSc2nc3c(c(=O)[nH]2)CN(Cc2ccccc2)CC3)cc1`, inactive: 4.88%; in that of `CCOC(=O)N1CCC(NC(=O)c2c(C)nn(-c3cccc(C)c3)c2-n2cccc2)CC1`, inactive: -13.1%.
For `COc1ccccc1Nc1ncc2c(n1)CCN(Cc1ccc(C)s1)C2`, the “activity change, negative = inhibition” value was inactive: -2.72%.
